Data published in the supplement of paper PMC4967469.
pIC50: −log10 of the molar value. By IC50 is meant the dose at which the fit gives 50% viability; a fit beyond the top or the lowest dose is shown as a bound at that dose. AUC sums up the same curve from the lowest dose to the 256-fold higher top dose; values near 1 show little effect. For some assays here: A top dose marked as inferred comes from the curve model; the source does not state it.

Legend:
Test in all cases: Viability of human cancer cell lines after 72 h of drug (GDSC screen)
[1] = compound: Cc1ccc(C(=O)Nc2cccc(C(F)(F)F)c2)cc1Nc1nc(-c2cccnc2)nc2c1cnn2C [NVP-BHG712]; conditions: top dose 10.24 µM; top dose inferred
Experimental: (§1)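 Human cancer cell lines in 384-well plates, medium with 10% serum, drug for 72 h over a 256-fold dose range (nine 2-fold or five 4-fold steps up to the top dose). Adherent lines were fixed and stained with the nucleic acid dye Syto60, suspension lines read with resazurin; signal relative to control wells, capped at 0 and 100%. One two-parameter sigmoid per drug and line, fitted in a mixed model over all curves with the slope shared within a line.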

[2] = compound: CO[C@@]12[C@H](COC(N)=O)C3=C(C(=O)C(C)=C(N)C3=O)N1C[C@@H]1N[C@@H]12 [Mitomycin C]; conditions: top dose 16 µM
Experimental: as §1

[3] = compound: CO[C@@H]1[C@H](N(C)C(=O)c2ccccc2)C[C@H]2O[C@]1(C)n1c3ccccc3c3c4c(c5c6ccccc6n2c5c31)C(=O)NC4 [Midostaurin]; conditions: top dose 0.512 µM; top dose inferred
Experimental: as §1

[4] = compound: CC[C@H](CO)Nc1nc(NCc2ccccc2)c2ncn(C(C)C)c2n1 [Roscovitine]; conditions: top dose 16 µM; top dose inferred
Experimental: as §1

[5] = compound: O=C(O)CNC(=O)c1c(O)c2ccccc2n(Cc2ccccc2)c1=O [IOX2]; conditions: top dose 0.1 µM; top dose inferred
Experimental: as §1

[6] = compound: COc1cc(Nc2c(C#N)cnc3cc(OCCCN4CCN(C)CC4)c(OC)cc23)c(Cl)cc1Cl [Bosutinib]; conditions: top dose 2 µM
Experimental: as §1

COR-L279 (small cell lung carcinoma, suspension)
AUC [1]: 0.971
pIC50 [1]: < 4.99
AUC [2]: 0.071
pIC50 [2]: > 7.20
AUC [3]: 0.959
pIC50 [3]: < 6.29
AUC [4]: 0.88
pIC50 [4]: 4.87
AUC [5]: 0.99
pIC50 [5]: < 7.00
AUC [6]: 0.991
pIC50 [6]: < 5.70

CP66-MEL (melanoma, adherent)
AUC [1]: 0.866
pIC50 [1]: < 4.99
AUC [2]: 0.4
pIC50 [2]: 6.29
AUC [3]: 0.982
pIC50 [3]: < 6.29
AUC [4]: 0.975
pIC50 [4]: < 4.80
AUC [5]: 0.984
pIC50 [5]: < 7.00
AUC [6]: 0.979
pIC50 [6]: < 5.70

CPC-N (small cell lung carcinoma, suspension)
AUC [1]: 0.922
pIC50 [1]: < 4.99
AUC [2]: 0.355
AUC [3]: 0.985
pIC50 [3]: < 6.29
AUC [4]: 0.967
pIC50 [4]: < 4.80
AUC [5]: 0.979
pIC50 [5]: < 7.00
AUC [6]: 0.971
pIC50 [6]: < 5.70

CTB-1 (B-cell lymphoma, suspension)
AUC [1]: 0.621
pIC50 [1]: 5.81
AUC [2]: 0.35
pIC50 [2]: 6.48
AUC [3]: 0.938
pIC50 [3]: < 6.29
AUC [4]: 0.958
pIC50 [4]: < 4.80
AUC [5]: 0.976
pIC50 [5]: < 7.00
AUC [6]: 0.758
pIC50 [6]: 6.03

CTV-1 (acute myeloid leukaemia, suspension)
AUC [1]: 0.098
pIC50 [1]: 7.33
AUC [2]: 0.117
pIC50 [2]: 7.06
AUC [3]: 0.938
pIC50 [3]: < 6.29
AUC [4]: 0.923
pIC50 [4]: < 4.80
AUC [5]: 0.992
pIC50 [5]: < 7.00
AUC [6]: 0.438
pIC50 [6]: 7.06

CW-2 (large intestine, adherent)
AUC [1]: 0.966
pIC50 [1]: < 4.99
AUC [2]: 0.818
pIC50 [2]: 5.00
AUC [3]: 0.988
pIC50 [3]: < 6.29
AUC [4]: 0.913
pIC50 [4]: < 4.80
AUC [5]: 0.987
pIC50 [5]: < 7.00
AUC [6]: 0.989
pIC50 [6]: < 5.70

Calu-6 (lung adenocarcinoma, adherent)
AUC [1]: 0.589
pIC50 [1]: 5.94
AUC [2]: 0.335
pIC50 [2]: 6.49
AUC [3]: 0.967
pIC50 [3]: < 6.29
AUC [4]: 0.903
pIC50 [4]: < 4.80
AUC [5]: 0.982
pIC50 [5]: < 7.00
AUC [6]: 0.984
pIC50 [6]: < 5.70

D-263MG (glioma, adherent)
AUC [1]: 0.983
pIC50 [1]: < 4.99
AUC [2]: 0.401
pIC50 [2]: 6.30
AUC [3]: 0.829
pIC50 [3]: 6.38
AUC [4]: 0.929
pIC50 [4]: < 4.80
AUC [5]: 0.961
pIC50 [5]: < 7.00
AUC [6]: 0.973
pIC50 [6]: < 5.70

D-283MED (medulloblastoma, adherent)
AUC [1]: 0.991
pIC50 [1]: < 4.99
AUC [2]: 0.275
pIC50 [2]: 6.61
AUC [3]: 0.934
pIC50 [3]: < 6.29
AUC [4]: 0.978
pIC50 [4]: < 4.80
AUC [5]: 0.99
pIC50 [5]: < 7.00
AUC [6]: 0.983
pIC50 [6]: < 5.70

D-392MG (glioma, adherent)
AUC [1]: 0.855
pIC50 [1]: < 4.99
AUC [2]: 0.725
pIC50 [2]: 5.25
AUC [3]: 0.77
pIC50 [3]: 6.57
AUC [4]: 0.945
pIC50 [4]: < 4.80
AUC [5]: 0.952
pIC50 [5]: < 7.00
AUC [6]: 0.948
pIC50 [6]: < 5.70

D-502MG (glioma, adherent)
AUC [1]: 0.883
pIC50 [1]: < 4.99
AUC [2]: 0.897
pIC50 [2]: < 4.80
AUC [3]: 0.96
pIC50 [3]: < 6.29
AUC [4]: 0.948
pIC50 [4]: < 4.80
AUC [5]: 0.974
pIC50 [5]: < 7.00
AUC [6]: 0.905
pIC50 [6]: < 5.70

D-542MG (glioma, adherent)
AUC [1]: 0.931
pIC50 [1]: < 4.99
AUC [2]: 0.466
pIC50 [2]: 6.10
AUC [3]: 0.975
pIC50 [3]: < 6.29
AUC [4]: 0.884
pIC50 [4]: < 4.80
AUC [5]: 0.98
pIC50 [5]: < 7.00
AUC [6]: 0.984
pIC50 [6]: < 5.70

DB (B-cell lymphoma, suspension)
AUC [1]: 0.783
pIC50 [1]: 5.31
AUC [2]: 0.366
pIC50 [2]: 6.39
AUC [3]: 0.912
pIC50 [3]: < 6.29
AUC [4]: 0.919
pIC50 [4]: < 4.80
AUC [5]: 0.981
pIC50 [5]: < 7.00
AUC [6]: 0.899
pIC50 [6]: < 5.70

DG-75 (Burkitt lymphoma, suspension)
AUC [1]: 0.945
pIC50 [1]: < 4.99
AUC [2]: 0.759
pIC50 [2]: 5.25
AUC [3]: 0.984
pIC50 [3]: < 6.29
AUC [4]: 0.943
pIC50 [4]: < 4.80
AUC [5]: 0.985
pIC50 [5]: < 7.00
AUC [6]: 0.827
pIC50 [6]: 5.90

DMS-79 (small cell lung carcinoma, suspension)
AUC [1]: 0.981
pIC50 [1]: < 4.99
AUC [2]: 0.619
pIC50 [2]: 5.65
AUC [3]: 0.984
pIC50 [3]: < 6.29
AUC [4]: 0.956
pIC50 [4]: < 4.80
AUC [5]: 0.986
pIC50 [5]: < 7.00
AUC [6]: 0.986
pIC50 [6]: < 5.70

DND-41 (T-cell leukaemia, suspension)
AUC [1]: 0.646
pIC50 [1]: 5.81
AUC [2]: 0.194
pIC50 [2]: 6.84
AUC [3]: 0.93
pIC50 [3]: < 6.29
AUC [4]: 0.897
pIC50 [4]: 4.80
AUC [5]: 0.989
pIC50 [5]: < 7.00
AUC [6]: 0.946
pIC50 [6]: < 5.70

DSH1 (bladder, adherent)
AUC [1]: 0.989
pIC50 [1]: < 4.99
AUC [2]: 0.182
pIC50 [2]: 6.93
AUC [3]: 0.901
pIC50 [3]: < 6.29
AUC [4]: 0.961
pIC50 [4]: < 4.80
AUC [5]: 0.988
pIC50 [5]: < 7.00
AUC [6]: 0.914
pIC50 [6]: < 5.70

DU-4475 (breast, suspension)
AUC [1]: 0.476
pIC50 [1]: 6.25
AUC [2]: 0.069
pIC50 [2]: > 7.20
AUC [3]: 0.893
pIC50 [3]: 6.39
AUC [4]: 0.955
pIC50 [4]: < 4.80
AUC [5]: 0.992
pIC50 [5]: < 7.00
AUC [6]: 0.975
pIC50 [6]: < 5.70

Daudi (Burkitt lymphoma, suspension)
AUC [1]: 0.775
pIC50 [1]: 5.45
AUC [2]: 0.337
pIC50 [2]: 6.42
AUC [3]: 0.911
pIC50 [3]: < 6.29
AUC [4]: 0.917
pIC50 [4]: < 4.80
AUC [5]: 0.976
pIC50 [5]: < 7.00
AUC [6]: 0.961
pIC50 [6]: < 5.70
